PubChem BioAssay AID2451 (National Center for Advancing Translational Sciences (NCATS), 2010)
Hit rate of the full screen: of about 290,000 compounds, about 2,100 (0.72%) were called active. The shares of active, inactive and inconclusive entries below differ from those in the screen. The call rests on the fitted dose curve; in most records, active means well fitted inhibition curve with a large enough effect; inconclusive means small, poorly fitted or top-dose-only effect, or effect the other way; inactive means flat fitted curve, though single readings scatter. Potencies beside an inconclusive call are fits to weak or partial responses and may not hold up.

Molecular target: Fructose-bisphosphate aldolase (Giardia intestinalis (strain ATCC 50803 / WB clone C6)) (UniProt A8B2U2)
Assay: qHTS Assay for Inhibitors of Fructose-1,6-bisphosphate Aldolase from Giardia Lamblia; further: nearly all actives have a fitted effect of over 55% in size
Conditions: purified Giardia FBPA; activity, negative = inhibition: at 59.6 µM (top of the series) unless noted
In short: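 Giardia FBPA (40 nM reagent) was preincubated 10 min at RT with compound (up to 57.5 uM final), then substrate plus GAPDH/TPI/NAD/arsenate coupling system with diaphorase/resazurin was added; resorufin fluorescence (525/598 nm) was read after 20 min.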
On the % scale 0 is the no-effect control and ±100 the full control effect; potency means the concentration at half of the fitted maximal effect; tags describe the fitted curve by direction and shape.

UniProt A8B2U2, sequence (A8B2U2 whole entry, looked up): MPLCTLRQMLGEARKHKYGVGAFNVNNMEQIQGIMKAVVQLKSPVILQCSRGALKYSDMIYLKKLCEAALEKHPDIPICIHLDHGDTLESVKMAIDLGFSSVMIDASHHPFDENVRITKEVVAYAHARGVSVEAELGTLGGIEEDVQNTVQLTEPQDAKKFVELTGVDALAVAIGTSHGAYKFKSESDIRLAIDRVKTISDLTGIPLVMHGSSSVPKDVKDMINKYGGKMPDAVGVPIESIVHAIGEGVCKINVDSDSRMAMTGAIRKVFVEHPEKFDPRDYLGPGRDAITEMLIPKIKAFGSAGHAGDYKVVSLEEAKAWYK

| SMILES | Potency | activity, negative = inhibition |
| --- | --- | --- |
| COc1cc(C(=O)NC(=S)Nc2nccs2)cc(OC)c1OC | active: 14.1 µM |  |
| CCC(=O)Nc1cccc(NC(=S)NC(=O)c2cccs2)c1 | inconclusive: 19.9 µM [inhibitor, partial curve] |  |
| COCCn1c(C)cc(C(=O)COc2ncnc3ccc(Br)cc23)c1C |  | inactive: 6.15% |
| Cc1ccc(S(=O)(=O)Cn2nnnc2C(CC(C)C)N2CCN(C3CCCC3)CC2)cc1 (stereo not drawn) | inconclusive: 22.4 µM [inhibitor, single point] |  |
| Cc1cc(C(=O)Cn2nc(C(=O)O)c3ccccc3c2=O)c(C)n1-c1ccc(F)cc1 |  | inactive: 4.52% |
| CN1CCN(CC(=O)N2c3ccccc3C(C)(c3ccccc3)CC2(C)C)CC1 (stereo not drawn) |  | inactive: -0.0545% |
| Cc1ccc2nc3sc(=O)sc3nc2c1 | inconclusive: 5.61 µM [inhibitor, single point] |  |
| COCCNC(=O)CCC(=O)NNc1nc2ccccc2c2nc(-c3ccccc3)nn12 | inconclusive: 17.7 µM [inhibitor, partial curve] |  |
| CCSc1ccccc1C(=O)N1CCN(c2ccccc2F)CC1 |  | inactive: 4.69% |
| CCCCn1nnc(N(C(=O)c2cccs2)C(=O)c2cccs2)n1 |  | inactive: 1.05% |
| Nc1c2c(nc3ccccc13)CCCC2 | inactive |  |
| Cc1nc(N)sc1-c1csc(Nc2ccc(Cl)cn2)n1 | inconclusive: 11.2 µM [inhibitor, partial curve] |  |
| Cc1ccc(C(C(=O)NC(C)(C)C)N(CCCN2CCOCC2)C(=O)c2ccc(-c3ccccc3)[nH]2)o1 (stereo not drawn) |  | inactive: -0.288% |
| CC(=O)OCCCNc1cc(Sc2ccc(Cl)cc2)c2nonc2c1[N+](=O)[O-] | inconclusive: 0.561 µM [inhibitor, full curve] |  |
| CCOc1ccc2[nH]cc(C(=O)NCc3ccc(F)cc3)c(=O)c2c1 |  | inactive: 13.6% |
| COCCOC(=O)c1c(NC(=O)CN2CCCc3ccccc32)sc(C(N)=O)c1C |  | inactive: -0.171% |
| Oc1ccc(/C=N/Nc2ccc(Cl)nn2)c(O)c1O | inconclusive: 12.6 µM [inhibitor, partial curve] |  |
| CCOC(=O)C1C(=O)C=C(c2ccc(C)cc2)CC1c1ccc([N+](=O)[O-])cc1 (stereo not drawn) |  | inactive: -1.5% |
| COc1ccc(Cn2c(C3CC3)nc3ccc(NC(=O)C4CC4)cc3c2=O)cc1 |  | inactive: -3.41% |
| CCOC(=O)C1=C(C)Nc2ccccc2N=C1NC(=O)C(CC)c1ccccc1 (stereo not drawn) |  | inactive: 0.651% |
| c1ccc2c(c1)nc1n2CCN1CCNC1CCCCC1 | inconclusive: 39.8 µM [inhibitor, single point] |  |
| Cc1ccc(C)n1-c1ccccc1N | inconclusive: 3.97 µM [inhibitor, full curve] |  |
| C=CCn1c(C(CCC(C)C)CC(C)(C)O)n[nH]c1=S (stereo not drawn) | inconclusive: 10 µM [inhibitor, partial curve] |  |
| CN(C)C(=O)c1ccc(-c2nc(Nc3ccccc3)c3ccccc3n2)cc1 |  | inactive: -13.2% |

| SMILES | Potency | activity, negative = inhibition |
| --- | --- | --- |
| Cn1c(SCc2n[nH]c(=S)o2)nnc1-c1ccccc1 | inconclusive: 15.8 µM [inhibitor, partial curve] |  |
| O=C(NCCN1CCCC1)c1ccc(Cl)cc1Cl | inconclusive: 28.2 µM [inhibitor, partial curve] |  |
| C[c-]1[c-](C)[c-](C)[c-](C)[c-]1C.[Fe].c1cc2nccc(N3CCCC3)[c-]2c1 (stereo not drawn) | inconclusive: 5.61 µM [inhibitor, partial curve] |  |
| Cc1ccc(Cn2c(CN(C)Cc3ccccc3)nc3c2c(=O)n(C)c(=O)n3C)cc1 |  | inactive: 1.13% |
| CC(C)c1nc2cc(C(=O)N3CCNC(=O)C3c3cccc(F)c3)ccc2o1 (stereo not drawn) |  | inactive: 10.9% |
| S=c1[nH]nc(-c2ccccc2)n1/N=C/c1cccc(Cl)c1 | inconclusive: 20 µM [activator, partial curve] |  |
| CCc1nnc(NC(=O)c2ccc(Cl)nc2)s1 | inconclusive: 19.9 µM [inhibitor, partial curve] |  |
| CC[C@H](C)C(=O)O[C@H]1C[C@@H](C)C=C2C=C[C@H](C)[C@H](CC[C@@H]3C[C@@H](O)CC(=O)O3)[C@H]21 | inconclusive: 15.8 µM [inhibitor, partial curve] |  |
| C=CC[n+]1c(-c2ccc(OC)cc2)csc1NNC(=O)Nc1ccccc1 | inconclusive: 31.5 µM [inhibitor, single point] |  |
| Cc1cc(NS(=O)(=O)c2ccc(NC(=O)/C=C/c3c(F)cccc3Cl)cc2)no1 |  | inactive: -10.6% |
| CC(C)C(=O)NC(=S)N1CCc2ccccc21 |  | inactive: -19.8% |
| Cc1[nH]c2ccccc2c1/C=N/NC(=O)CCC(=O)NCc1ccccc1 | inconclusive: 15.8 µM [inhibitor, partial curve] |  |
| Cc1cccc(Cn2nnc3c2C(=O)c2ccccc2C3=O)c1 | inconclusive: 1.58 µM [inhibitor, partial curve] |  |
| CCN(Cc1nc2ccccc2c(=O)[nH]1)Cc1nc2cc(OC)c(OC)cc2c(=O)[nH]1 | active: 5.61 µM |  |
| Cc1[nH]n(-c2ccccc2)c(=O)c1N=Nc1cccc(C(=O)O)c1 | inconclusive: 10 µM [inhibitor, partial curve] |  |
| Cc1c(/C=N/NC(=O)c2cc(=O)[nH]c(=O)[nH]2)c2ccccn2c1C(=O)c1ccccc1 | inconclusive: 2.81 µM [inhibitor, full curve] |  |
| COc1ccccc1/C=N/Nc1cc(C)nc2ccc(C)cc12 |  | inactive: 1.6% |
| O=C(N/N=C\c1cc([N+](=O)[O-])ccc1N1CCCC1)c1ccccn1 |  | inactive: -4.13% |
| CNC(=S)N/N=C/c1cc(Br)c(OCc2ccncc2)c(OC)c1 | inconclusive: 15.8 µM [inhibitor, partial curve] |  |
| OCCN(Cc1ccccc1)Cc1ccc(C(F)(F)F)cc1 | inconclusive: 17.7 µM [inhibitor, single point] |  |
| CCN(Cc1ccccc1)C(=O)CCc1nc(CN2CCN(C(=O)c3ccc([N+](=O)[O-])cc3)CC2)no1 | inconclusive: 28.2 µM [inhibitor, single point] |  |
| CCCCC(=O)N/N=C/c1c(O)n(Cc2ccc(F)cc2)c(=O)[nH]c1=O | inconclusive: 8.89 µM [inhibitor, partial curve] |  |
| CCOC(=O)CSCc1cn2cc(Cl)ccc2n1 |  | inactive: -2.99% |
| CCn1c(CSc2nc3ccccc3s2)nnc1SCC(=O)c1ccc(O)c(O)c1 | inconclusive: 1.26 µM [inhibitor, full curve] |  |
